According to paper PMC2999557:
No constants are given. Whether binding was seen depends on the method and setting. In cells and extracts the contact can be indirect. Some entries that bind do so weakly or less than the wild type.

Chains of the proteins cited; added tags and fusions are not shown. Lines headed by an entry give the natural chain unless they say otherwise; changes in a name come on top. Residues count along the entry.
UniProt Q96KQ7: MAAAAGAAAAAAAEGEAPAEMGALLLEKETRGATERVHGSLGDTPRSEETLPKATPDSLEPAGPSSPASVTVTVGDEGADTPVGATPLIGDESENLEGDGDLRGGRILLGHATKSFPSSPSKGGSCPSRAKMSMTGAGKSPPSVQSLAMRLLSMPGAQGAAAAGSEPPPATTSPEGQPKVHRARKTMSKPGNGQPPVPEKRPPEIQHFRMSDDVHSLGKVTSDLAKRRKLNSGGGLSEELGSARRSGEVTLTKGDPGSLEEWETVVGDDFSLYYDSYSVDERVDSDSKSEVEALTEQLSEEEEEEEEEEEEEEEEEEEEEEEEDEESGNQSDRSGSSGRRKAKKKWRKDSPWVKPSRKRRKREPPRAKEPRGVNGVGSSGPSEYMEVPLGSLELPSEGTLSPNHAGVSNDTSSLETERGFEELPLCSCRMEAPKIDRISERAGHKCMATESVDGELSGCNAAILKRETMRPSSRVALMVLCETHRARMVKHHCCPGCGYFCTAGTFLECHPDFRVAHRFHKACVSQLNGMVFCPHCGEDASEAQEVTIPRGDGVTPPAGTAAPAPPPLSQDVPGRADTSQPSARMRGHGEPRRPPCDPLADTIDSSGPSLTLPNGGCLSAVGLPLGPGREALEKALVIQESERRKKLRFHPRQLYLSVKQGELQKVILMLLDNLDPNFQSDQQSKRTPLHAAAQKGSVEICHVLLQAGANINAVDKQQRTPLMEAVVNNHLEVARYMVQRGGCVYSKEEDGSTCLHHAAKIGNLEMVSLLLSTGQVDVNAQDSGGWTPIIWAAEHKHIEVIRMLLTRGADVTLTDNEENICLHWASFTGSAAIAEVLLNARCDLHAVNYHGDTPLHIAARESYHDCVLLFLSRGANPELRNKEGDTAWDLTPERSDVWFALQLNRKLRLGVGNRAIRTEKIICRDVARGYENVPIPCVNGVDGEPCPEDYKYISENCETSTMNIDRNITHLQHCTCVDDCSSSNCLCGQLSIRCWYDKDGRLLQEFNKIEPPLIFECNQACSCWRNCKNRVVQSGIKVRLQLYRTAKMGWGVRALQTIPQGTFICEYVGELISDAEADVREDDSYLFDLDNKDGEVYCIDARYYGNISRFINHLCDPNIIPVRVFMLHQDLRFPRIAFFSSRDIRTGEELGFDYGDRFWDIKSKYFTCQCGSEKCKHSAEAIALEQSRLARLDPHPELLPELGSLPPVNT
UniProt Q13263: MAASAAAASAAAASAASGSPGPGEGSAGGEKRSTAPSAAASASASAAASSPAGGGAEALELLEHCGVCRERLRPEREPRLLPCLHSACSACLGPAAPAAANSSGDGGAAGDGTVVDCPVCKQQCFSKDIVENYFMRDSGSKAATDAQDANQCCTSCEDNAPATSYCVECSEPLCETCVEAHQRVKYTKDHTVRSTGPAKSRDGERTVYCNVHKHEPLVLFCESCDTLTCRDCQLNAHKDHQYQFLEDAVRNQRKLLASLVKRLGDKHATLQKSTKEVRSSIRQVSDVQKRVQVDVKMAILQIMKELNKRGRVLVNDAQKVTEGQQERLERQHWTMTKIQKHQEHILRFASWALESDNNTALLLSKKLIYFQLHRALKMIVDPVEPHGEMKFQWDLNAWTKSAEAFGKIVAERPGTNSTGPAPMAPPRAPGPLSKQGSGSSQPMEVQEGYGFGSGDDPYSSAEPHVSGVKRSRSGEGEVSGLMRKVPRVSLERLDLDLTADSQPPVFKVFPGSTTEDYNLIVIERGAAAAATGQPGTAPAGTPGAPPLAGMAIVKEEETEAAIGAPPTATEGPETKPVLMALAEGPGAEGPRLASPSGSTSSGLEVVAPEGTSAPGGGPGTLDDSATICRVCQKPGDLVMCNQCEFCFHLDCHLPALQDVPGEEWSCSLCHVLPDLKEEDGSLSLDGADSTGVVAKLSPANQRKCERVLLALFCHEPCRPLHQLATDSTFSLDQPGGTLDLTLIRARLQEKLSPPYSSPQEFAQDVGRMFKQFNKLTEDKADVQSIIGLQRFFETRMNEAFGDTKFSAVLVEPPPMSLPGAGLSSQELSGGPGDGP
UniProt Q96GC6: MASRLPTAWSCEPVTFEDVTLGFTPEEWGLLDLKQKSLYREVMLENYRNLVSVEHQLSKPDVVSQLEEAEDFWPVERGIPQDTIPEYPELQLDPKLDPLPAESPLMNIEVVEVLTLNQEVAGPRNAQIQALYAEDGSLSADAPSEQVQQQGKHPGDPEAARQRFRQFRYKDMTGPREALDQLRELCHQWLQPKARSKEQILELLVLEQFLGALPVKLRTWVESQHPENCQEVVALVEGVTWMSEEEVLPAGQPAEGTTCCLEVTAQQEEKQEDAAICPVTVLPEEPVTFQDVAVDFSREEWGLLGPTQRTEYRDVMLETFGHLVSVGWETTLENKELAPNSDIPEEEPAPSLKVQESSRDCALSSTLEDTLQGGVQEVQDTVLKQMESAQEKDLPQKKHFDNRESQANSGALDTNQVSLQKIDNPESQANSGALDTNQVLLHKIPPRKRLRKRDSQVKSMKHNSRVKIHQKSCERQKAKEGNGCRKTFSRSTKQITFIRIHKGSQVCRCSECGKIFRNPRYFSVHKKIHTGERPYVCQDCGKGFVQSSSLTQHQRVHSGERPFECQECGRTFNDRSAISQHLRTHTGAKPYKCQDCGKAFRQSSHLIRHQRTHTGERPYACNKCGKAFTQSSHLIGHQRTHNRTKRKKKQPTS
GST fusion of the first KRAB domain of human ZNF274 (residues 2-90, KRAB1): residues 2-90 of Q96GC6
GST fusion of the second KRAB domain of human ZNF274 (residues 278-366, KRAB2): residues 278-366 of Q96GC6
UniProt P21506, residues 2-90: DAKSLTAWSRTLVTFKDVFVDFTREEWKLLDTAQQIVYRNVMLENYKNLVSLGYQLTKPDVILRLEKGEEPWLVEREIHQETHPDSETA
UniProt O14978, residues 206-299: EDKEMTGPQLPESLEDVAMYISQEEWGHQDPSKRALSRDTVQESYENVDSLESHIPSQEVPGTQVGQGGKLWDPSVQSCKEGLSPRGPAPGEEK

Key:
[1] = biological target: G9a/KMT1C histone methyltransferase (human (endogenous in K562)) (UniProt Q96KQ7); experiment: co-IP; endogenous proteins, K562 cell lysate (20 mM Tris-HCl pH 8.0, 150 mM NaCl, 2.5 mM EDTA, 0.5% NP-40, 5% glycerol); 5 µg antibody (control IgG, KAP1, ZNF274, SETDB1 or G9a), 5 hours at 4°C, protein G-agarose; western blot
[2] = biological target: TRIM28 (KAP1) corepressor (human (endogenous in K562)) (UniProt Q13263); experiment: as above
[3] = biological target: ZNF274 (KRAB-ZNF with 5 C2H2 zinc finger domains, a SCAN domain and 2 KRAB domains) (human (endogenous in K562)) (UniProt Q96GC6); experiment: as above
[4] = biological target: GST fusion of the KRAB domain of human ZNF10 (residues 2-90) (human) (UniProt P21506); experiment: pull-down; GST-KRAB domains prebound to glutathione-agarose beads, incubated 4 hours at 4°C with undialyzed K562 nuclear extract in 10 mM Hepes-NaOH pH 7.9, 0.3 M KCl, 1.5 mM MgCl2, 0.5 mM PMSF, 0.1% Triton X-100; washed 7 times with 0.5 M KCl; eluted with glutathione; western blot for KAP1; only the target purified
[5] = biological target: GST fusion of the KRAB domain of human ZNF263 (residues 206-299) (human) (UniProt O14978); experiment: as above
[6] = biological target: GST fusion of the first KRAB domain of human ZNF274 (residues 2-90, KRAB1) (human) (UniProt Q96GC6); experiment: as above
[7] = biological target: GST fusion of the second KRAB domain of human ZNF274 (residues 278-366, KRAB2) (human) (UniProt Q96GC6); experiment: as above

binding [1]	binding [2]	binding [3]	binding [4]	binding [5]	binding [6]	binding [7]	Substance
no binding	binds						ZNF274 (KRAB-ZNF with 5 C2H2 zinc finger domains, a SCAN domain and 2 KRAB domains) (from UniProt Q96GC6 1-653)
		binds	binds	no binding	binds	binds	TRIM28 (KAP1) corepressor (from UniProt Q13263 1-835)
		no binding					G9a/KMT1C histone methyltransferase (from UniProt Q96KQ7 1-1210)
